According to publication PMC5943263:
Results are given in words; binding and its absence hold for the method and conditions named. Binding seen in cells or lysates may run through a third protein. Some entries that bind do so weakly or less than the wild type. For some assays here: Sequences can lack the tags named with a protein.

Amino acid sequences for entries named in this document (tags omitted). A change or cut given only in a name is not applied to a line headed by its entry.
UniProt P61619: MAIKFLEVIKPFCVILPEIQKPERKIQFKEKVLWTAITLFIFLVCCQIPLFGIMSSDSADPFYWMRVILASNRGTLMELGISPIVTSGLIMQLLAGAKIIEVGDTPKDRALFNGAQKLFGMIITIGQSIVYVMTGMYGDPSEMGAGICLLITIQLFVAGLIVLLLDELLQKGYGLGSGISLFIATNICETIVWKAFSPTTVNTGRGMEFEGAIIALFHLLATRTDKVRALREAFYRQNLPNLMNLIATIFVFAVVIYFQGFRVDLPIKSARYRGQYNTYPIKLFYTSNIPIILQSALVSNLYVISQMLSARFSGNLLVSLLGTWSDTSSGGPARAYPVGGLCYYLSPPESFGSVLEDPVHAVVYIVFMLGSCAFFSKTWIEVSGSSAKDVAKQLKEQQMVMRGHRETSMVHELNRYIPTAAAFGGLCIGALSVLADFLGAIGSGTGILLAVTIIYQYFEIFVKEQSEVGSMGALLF
UniProt Q86TM6: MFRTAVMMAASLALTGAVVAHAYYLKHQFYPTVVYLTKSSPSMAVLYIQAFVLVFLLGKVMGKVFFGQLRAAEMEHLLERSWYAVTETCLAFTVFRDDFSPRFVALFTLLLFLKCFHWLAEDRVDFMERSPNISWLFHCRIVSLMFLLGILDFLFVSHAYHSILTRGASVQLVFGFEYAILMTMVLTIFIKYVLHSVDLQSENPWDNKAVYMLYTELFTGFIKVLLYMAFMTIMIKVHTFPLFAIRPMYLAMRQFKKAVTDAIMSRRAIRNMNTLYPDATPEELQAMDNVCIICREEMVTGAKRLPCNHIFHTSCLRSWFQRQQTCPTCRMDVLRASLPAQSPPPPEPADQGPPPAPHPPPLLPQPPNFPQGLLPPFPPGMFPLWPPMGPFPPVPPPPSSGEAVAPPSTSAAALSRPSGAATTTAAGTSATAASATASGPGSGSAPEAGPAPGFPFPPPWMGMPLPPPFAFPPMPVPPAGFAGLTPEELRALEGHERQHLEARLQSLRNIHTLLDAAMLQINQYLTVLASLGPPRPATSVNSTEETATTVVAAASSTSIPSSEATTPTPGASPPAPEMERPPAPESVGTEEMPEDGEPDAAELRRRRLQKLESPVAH
UniProt Q99942: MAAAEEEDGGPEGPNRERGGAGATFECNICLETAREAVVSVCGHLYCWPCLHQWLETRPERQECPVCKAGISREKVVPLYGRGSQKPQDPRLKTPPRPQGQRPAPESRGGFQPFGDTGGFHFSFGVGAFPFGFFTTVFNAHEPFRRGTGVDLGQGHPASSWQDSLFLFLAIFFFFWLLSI
UniProt P61011: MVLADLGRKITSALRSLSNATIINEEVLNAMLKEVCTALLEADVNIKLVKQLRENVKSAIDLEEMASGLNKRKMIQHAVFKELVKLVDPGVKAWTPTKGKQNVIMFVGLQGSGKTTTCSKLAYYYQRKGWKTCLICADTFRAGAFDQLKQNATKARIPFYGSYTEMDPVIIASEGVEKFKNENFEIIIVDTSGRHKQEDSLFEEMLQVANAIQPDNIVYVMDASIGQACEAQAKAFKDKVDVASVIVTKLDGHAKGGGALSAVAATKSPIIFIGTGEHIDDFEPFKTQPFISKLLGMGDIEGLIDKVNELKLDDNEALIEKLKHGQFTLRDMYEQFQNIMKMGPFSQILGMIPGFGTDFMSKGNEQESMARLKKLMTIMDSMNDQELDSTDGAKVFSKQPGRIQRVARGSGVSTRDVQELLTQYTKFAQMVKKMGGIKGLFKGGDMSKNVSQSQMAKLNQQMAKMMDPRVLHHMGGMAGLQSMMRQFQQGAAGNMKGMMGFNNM
UniProt Q9UKV5: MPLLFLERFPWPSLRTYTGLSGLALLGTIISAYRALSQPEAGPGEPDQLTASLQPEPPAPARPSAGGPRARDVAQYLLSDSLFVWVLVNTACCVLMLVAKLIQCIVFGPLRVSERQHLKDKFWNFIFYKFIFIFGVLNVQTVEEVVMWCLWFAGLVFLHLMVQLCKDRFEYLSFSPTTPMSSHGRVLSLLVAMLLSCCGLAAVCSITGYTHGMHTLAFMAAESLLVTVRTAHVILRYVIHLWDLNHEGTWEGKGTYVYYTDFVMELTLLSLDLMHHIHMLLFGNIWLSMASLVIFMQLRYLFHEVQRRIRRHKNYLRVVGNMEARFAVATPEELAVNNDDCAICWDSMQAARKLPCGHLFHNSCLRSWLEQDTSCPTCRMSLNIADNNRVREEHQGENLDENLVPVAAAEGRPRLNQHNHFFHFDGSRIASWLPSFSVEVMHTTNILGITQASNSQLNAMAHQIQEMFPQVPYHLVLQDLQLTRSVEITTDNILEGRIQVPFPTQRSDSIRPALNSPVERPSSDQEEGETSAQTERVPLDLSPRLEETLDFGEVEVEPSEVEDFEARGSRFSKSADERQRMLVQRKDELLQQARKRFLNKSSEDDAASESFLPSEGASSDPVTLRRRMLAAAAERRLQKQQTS

Assays:
[1] = biological target: T1, Human Derlin-1-Flag, wild-type (human) (UniProt Q9BUN8); assay: co-IP; transfected HEK293 cells treated with 50 nM Tg and 200 nM MG132 for 16 h, solubilized in 1% digitonin, 15–40% sucrose gradient (100,000 x g, 4 °C, 16 h); each fraction (200 μl) immunoprecipitated with anti-Flag Ab affinity gel; immunoblot; all fractions
T1 sequence: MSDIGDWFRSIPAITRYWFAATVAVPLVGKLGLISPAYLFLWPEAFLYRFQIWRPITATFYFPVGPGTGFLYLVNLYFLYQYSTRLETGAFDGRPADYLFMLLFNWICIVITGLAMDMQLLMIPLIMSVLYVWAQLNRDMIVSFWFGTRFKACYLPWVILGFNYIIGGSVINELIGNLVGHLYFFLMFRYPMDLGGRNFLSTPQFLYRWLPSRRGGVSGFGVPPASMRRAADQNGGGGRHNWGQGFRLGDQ

[2] = biological target: T1, Human Derlin-1-Flag, wild-type (human); assay: condition: only in the high-molecular-weight fractions of the sucrose gradient; co-IP; as a2, the high-molecular-weight fractions only (containing rough ER marked with Sec61α and S16; fractions 15–18 in Fig. 4d)
[3] = biological target: T1, Human Derlin-1-Flag, wild-type (human); assay: co-IP; anti-Flag M2 antibody affinity gel from lysates (20 mM Tris-HCl pH 7.5, 150 mM NaCl, 5 mM EGTA, 1% Triton X-100) of transfected HEK293 cells (WT or Derl1 KO; in some panels with Ctrl, HRD1 or Derlin-1, -2 and -3 siRNA), untreated or treated with 50 nM Tg with or without 200 nM MG132 for 16 h; beads washed with high-salt (500 mM NaCl) or low-salt (150 mM NaCl) buffer; immunoblot
[4] = biological target: Sec61α-Flag (human) (UniProt P61619); assay: as above
[5] = biological target: T1, Human Derlin-1-Flag, wild-type (human); assay: co-IP; as a2, the high-molecular-weight fractions only (containing rough ER marked with Sec61α and S16; fractions 15–18 in Fig. 4d)
[6] = biological target: T2, Derlin-2-Flag (human) (UniProt Q9GZP9); assay: co-IP; anti-Flag M2 antibody affinity gel from lysates (20 mM Tris-HCl pH 7.5, 150 mM NaCl, 5 mM EGTA, 1% Triton X-100) of transfected HEK293 cells (WT or Derl1 KO; in some panels with Ctrl, HRD1 or Derlin-1, -2 and -3 siRNA), untreated or treated with 50 nM Tg with or without 200 nM MG132 for 16 h; beads washed with high-salt (500 mM NaCl) or low-salt (150 mM NaCl) buffer; immunoblot
T2 sequence: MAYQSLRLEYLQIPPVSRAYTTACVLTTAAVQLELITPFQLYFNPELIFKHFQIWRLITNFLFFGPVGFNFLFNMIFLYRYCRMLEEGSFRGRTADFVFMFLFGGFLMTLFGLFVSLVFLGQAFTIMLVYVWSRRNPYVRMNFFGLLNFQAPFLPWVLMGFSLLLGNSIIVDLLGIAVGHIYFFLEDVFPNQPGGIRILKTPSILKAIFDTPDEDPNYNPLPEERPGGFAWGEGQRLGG

[7] = biological target: T3, Derlin-3-Flag (human) (UniProt Q96Q80); assay: as above
T3 sequence: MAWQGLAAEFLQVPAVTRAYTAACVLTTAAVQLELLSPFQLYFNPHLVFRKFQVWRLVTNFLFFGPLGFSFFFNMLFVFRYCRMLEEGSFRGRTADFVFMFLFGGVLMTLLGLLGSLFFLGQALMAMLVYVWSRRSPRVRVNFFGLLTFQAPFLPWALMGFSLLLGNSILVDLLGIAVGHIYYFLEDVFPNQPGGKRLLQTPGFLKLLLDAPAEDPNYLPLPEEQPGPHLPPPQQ

[8] = biological target: HRD1-Flag (human) (UniProt Q86TM6); assay: as above

binding [1]	binding [3]	Substance	further results
binds		6Myc-RMA1 (printed as 6Myc-RNA1) (from UniProt Q99942 1-180) (enzyme)	binding [2]: no binding
	binds	HRD1 (C291S/C329S)-Myc-His (from UniProt Q86TM6 1-617) (enzyme)	

The remaining lines, values behind:

Substance	binding [1]	binding [3]	further results
6Myc-SRP54, 54-kDa subunit of the SRP (from UniProt P61011 1-504)		binds	
HRD1-Myc-His, wild-type (from UniProt Q86TM6 1-617) (enzyme)	binds	binds	binding [4]: binds; binding [5]: binds
Sec61α-HA (from UniProt P61619 1-476)		binds	binding [6]: binds; binding [7]: binds
endogenous Sec61α (from UniProt P61619 1-476)			binding [8]: binds
gp78-HA (from UniProt Q9UKV5 1-643) (enzyme)	binds		binding [2]: no binding
